Laboratory results published in article PMC4336329 (PLoS ONE, 2015).
Out of some 310,000 compounds screened, about 2,200 (0.71%) showed an effect of 50% or more. Effects have a minus sign here. Some of the results follow.

Biological target: human ether-à-go-go-related gene (hERG) potassium channel (human, UniProt Q12809)
Experiment: primary screen, population patch clamp on CHO cells stably expressing hERG

Sequence of human ether-à-go-go-related gene (hERG) potassium channel (Q12809 whole entry, looked up): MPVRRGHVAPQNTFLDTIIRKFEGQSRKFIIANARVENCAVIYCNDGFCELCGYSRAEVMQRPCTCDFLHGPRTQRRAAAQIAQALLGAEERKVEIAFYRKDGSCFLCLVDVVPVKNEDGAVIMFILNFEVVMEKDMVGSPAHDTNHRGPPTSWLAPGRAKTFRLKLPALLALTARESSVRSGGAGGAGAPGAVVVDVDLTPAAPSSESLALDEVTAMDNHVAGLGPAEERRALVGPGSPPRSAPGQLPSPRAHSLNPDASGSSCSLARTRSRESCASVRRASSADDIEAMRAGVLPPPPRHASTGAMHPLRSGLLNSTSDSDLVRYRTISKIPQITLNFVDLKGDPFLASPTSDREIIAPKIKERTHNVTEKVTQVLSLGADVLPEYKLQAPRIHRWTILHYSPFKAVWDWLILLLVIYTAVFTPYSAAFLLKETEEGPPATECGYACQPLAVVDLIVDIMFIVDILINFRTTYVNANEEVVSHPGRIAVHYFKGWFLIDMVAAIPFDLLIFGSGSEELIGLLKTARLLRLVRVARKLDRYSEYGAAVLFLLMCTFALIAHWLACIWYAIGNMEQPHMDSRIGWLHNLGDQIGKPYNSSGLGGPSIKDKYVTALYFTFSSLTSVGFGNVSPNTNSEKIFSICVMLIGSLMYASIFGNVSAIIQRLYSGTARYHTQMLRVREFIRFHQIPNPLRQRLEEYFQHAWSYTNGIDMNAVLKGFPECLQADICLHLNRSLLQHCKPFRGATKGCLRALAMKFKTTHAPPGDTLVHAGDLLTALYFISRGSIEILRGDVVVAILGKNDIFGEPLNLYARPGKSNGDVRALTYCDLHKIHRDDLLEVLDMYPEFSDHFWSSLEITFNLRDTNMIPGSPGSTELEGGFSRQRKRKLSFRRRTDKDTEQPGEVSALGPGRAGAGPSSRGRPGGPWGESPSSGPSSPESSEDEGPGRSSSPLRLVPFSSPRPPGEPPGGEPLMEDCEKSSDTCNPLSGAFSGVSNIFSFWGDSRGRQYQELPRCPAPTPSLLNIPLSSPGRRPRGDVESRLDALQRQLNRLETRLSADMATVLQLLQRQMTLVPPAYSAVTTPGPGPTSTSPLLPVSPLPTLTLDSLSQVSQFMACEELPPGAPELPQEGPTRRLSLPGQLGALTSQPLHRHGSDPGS

| SMILES | hERG current change (%, negative = inhibition) at 1uM [%] |
| --- | --- |
| c1cncc(-c2nc(-c3ccc4c(c3)OCCO4)cs2)c1 | 9.93 |
| Cc1nn(CCOc2ccc(Br)cc2)c(C)c1[N+](=O)[O-] | 6.87 |
| c1ccc2[nH]c(CSc3nnc(-c4ccncc4)o3)nc2c1 | -16.4 |
| COc1cccc(N2CCN(CC(=O)Nc3nc4c(s3)CC(C)CC4)CC2)c1 (stereo not shown) | -3.53 |
| O=C(CCc1nc2ccccc2c(=O)[nH]1)Nc1nnc(SCc2ccccc2)s1 | -0.601 |
| c1ccc(Cn2nnc3c(NCC4CCCO4)nc(C4CC4)nc32)cc1 (stereo not shown) | 0.112 |
| COc1ccc(C(=O)N2c3ccccc3C(=O)OC2c2ccc3c(c2)OCO3)cc1 (stereo not shown) | 7.82 |
| COCCN(C(=O)c1sc2ccccc2c1Cl)c1c(N)n(CC(C)C)c(=O)[nH]c1=O | 13.9 |
| CCN(CC)CCCn1c2c(c(SCC(=O)N3CCCc4ccccc43)nc1=O)CCC2 | 9.45 |
| Nc1ccc(-c2nc3ncccc3o2)cc1 | 16.3 |
| Cc1[nH]nc2c1C(=O)CCC2 | 9.57 |
| C=CCc1ccc(OCC(O)COc2ccc(CC=C)cc2OC)c(OC)c1 | 10.3 |
| COc1cc(CC(=O)O)c(C(C)=O)cc1OC | 7.16 |
| Cc1cccc(NC(=O)Cn2c(=O)n(CCC(=O)NC3CCCC3)c(=O)c3ccccc32)c1 | 12.1 |
| N#CC(c1ccccc1)c1ccc(=O)[nH]n1 (stereo not shown) | 6.17 |
| COc1ccc(-n2nc(C(=O)NCC(=O)N3CCN(c4ccccc4F)CC3)c3ccccc3c2=O)cc1 | 9.48 |
| c1ccc(-n2nnc(-c3nccs3)n2)cc1 | 14.4 |
| COc1ccc(-c2c(C(F)(F)F)nn(C)c2NC(=O)c2cccnc2)cc1 | 5.23 |
| CC(C)c1ccc2oc(-c3ccc(NC(=O)c4ncn[nH]4)cc3)nc2c1 | 7.04 |
| COc1ccc(OCc2nnc(SCC(N)=O)n2N)cc1 | 12.8 |
| CN(C(=O)CCNC(=O)Cn1cnc2ccccc2c1=O)c1ccc(Br)cc1 | 10.7 |
| NNC(=O)c1ccc(COc2cccc3ccccc23)cc1 | 6.19 |

| SMILES | hERG current change (%, negative = inhibition) at 1uM [%] |
| --- | --- |
| Cc1cccc(C(=O)NCC(=O)OC(C)C(=O)Nc2ccc(Cl)cn2)c1 (stereo not shown) | -1.33 |
| O=C(c1ccccc1)c1cncc(Br)c1 | 4.91 |
| NC(=O)CSc1nnc(-c2ccccn2)n1N | 12.4 |
| Cc1ccc(-c2nnc(SCC(=O)N(CC(C)C)c3c(N)n(Cc4ccccc4)c(=O)[nH]c3=O)n2N)cc1 | 12.1 |
| O=C(CN1CCN(c2ccc(F)cc2)CC1)NCC1CCCO1 (stereo not shown) | 1.66 |
| O=C(Nc1ccccc1C(=O)NCC1CCCO1)c1ccccc1F (stereo not shown) | 11.5 |
| COc1ccc(-c2nc(CN3CCC(c4ccccc4)CC3)c(C)o2)cc1OC | -13.5 |
| CCOC(=O)Cc1csc(NC(=O)CC)n1 | 5.73 |
| COc1ccc(/C=N\NC(=O)c2ccccc2OC)cc1COc1c(F)c(F)c(F)c(F)c1F | 18.9 |
| COc1ccc(OC)c(NC(=O)C2CCN(C(=O)c3cccs3)CC2)c1 | 18.9 |
| CCCN1CCN(CCCNC(=O)C(CC)n2nc(C)c3sc4ccccc4c3c2=O)CC1 (stereo not shown) | -19.9 |
| CS(=O)(=O)N1CCc2ccc(NC(=O)C3CCCO3)cc2C1 (stereo not shown) | 14.2 |
| COc1ccc(CN2C(=O)CN(C3CCCCCC3)C(=O)C2c2ccc(F)cc2)cc1 (stereo not shown) | 3.48 |
| Cc1ccc(S(=O)(=O)NCc2ccc(N3CCN(C(=O)OC(C)(C)C)CC3)cc2)cc1 | -4.99 |
| O=C(O)c1cc(-c2cccc3ccccc23)nc2ccccc12 | 13.7 |
| Cc1nnc2ccc(-c3ccc(NS(=O)(=O)c4ccccc4F)cc3)nn12 | 14.2 |
| Cc1ccccc1SCC(=O)Nc1cc(S(=O)(=O)N2CCOCC2)ccc1N1CCOCC1 | 6.92 |
| Clc1ccc(OCCSc2nnnn2C2CCCCC2)cc1 | 6.37 |
| O=C1CCOc2cc(OCc3ccccc3)ccc21 | 5.04 |
| CCN(CC)c1nc2c(s1)C(=O)CC(C)(C)C2 | 2.14 |
| CN1c2ccccc2C(C)(C)C12C=Cc1cc(O)ccc1O2 (stereo not shown) | -0.271 |
| OC1(c2ccc(F)cc2)CSC(=Nc2cccnc2)N1Cc1ccco1 (stereo not shown) | 4.87 |

| SMILES | hERG current change (%, negative = inhibition) at 1uM [%] |
| --- | --- |
| O=C(COC(=O)Cc1c(Cl)cccc1Cl)Nc1ccc2[nH]c(=O)[nH]c2c1 | 13.4 |
| Cc1cc(=O)oc2cc(OCC(=O)N3CC(=O)Nc4ccccc43)c(Cl)cc12 | 9.4 |
| CN(c1ccccc1)S(=O)(=O)c1ccc(C(=O)NNC(=O)c2ccccc2F)cc1 | 8.11 |
| Cc1c(-c2ccccc2)nc2ccccc2c1C(=O)Nc1ccncc1 | 2.08 |
| O=C(/C=N/O)Nc1ccc2sc3ccccc3c2c1 | 15.7 |
| Cc1ccc(NC2=NCC(=O)N2Cc2cccs2)cc1C.Cl | 5.28 |
| Cc1ccc(CSCC(=O)N/N=C/c2cccc(OC3CSC3)c2)cc1 | 12.4 |
| O=C(O)c1ccc(-c2ccc(/C=c3/sc4nc5ccccc5n4c3=O)o2)cc1Cl | 13.1 |
| COc1ccc(NC(=O)CCCn2nc(C)c3c(C)n(-c4ccccc4)nc3c2=O)cc1 | 13.1 |
| O=C(CCCOc1ccc(Cl)cc1Cl)NCCCn1ccnc1 | -22.8 |
| COc1cc(CNc2ccccc2Oc2cc(=O)n(C)c(=O)n2C)cc(OC)c1OC | 12.8 |
| O=C(Nc1nc2c(cc3c4c(cccc42)CC3)s1)c1ccccc1Cl | 16.1 |
| O=C(Nc1ccc(N2CCCCC2)cc1)c1ccc2ccccc2n1 | 10.4 |
| COc1cccc(-c2cc(C(=O)NC3CC3)c3ccccc3n2)c1 | -20.1 |
| Cc1cc(=O)oc2cc(Oc3ccc(C(N)=O)cc3[N+](=O)[O-])ccc12 | -5.23 |
| O=C(CCS(=O)(=O)c1ccc(Br)cc1)Nc1ccc(Br)cc1F | 7.33 |
| CCOC(=O)C1=C(C)N(C)C(=O)NC1c1ccc2c(c1)OCO2 (stereo not shown) | 6.95 |
| COc1ccc(C(=O)COC(=O)c2sc(C)nc2C)cc1Cl | 11.7 |
| O=C(NCc1ccccc1)C1=C[C@@H](C2CC2)C[C@@H](OCCCCO)O1 | 16.1 |
| O=C(CN1CCN(c2ccc(O)cc2)CC1)NC1CCCc2ccccc21 (stereo not shown) | 11.9 |
| O=C1C2C3CC(C(Br)C3Br)C2C(=O)N1CC1CCCO1 (stereo not shown) | 13 |
| O=C(COc1ccc(Br)cc1)Nc1ccc2c(c1)C(=O)NC2=O | 16.5 |

| SMILES | hERG current change (%, negative = inhibition) at 1uM [%] |
| --- | --- |
| CCc1ccc(-c2nn(-c3ccccc3C)cc2C(=O)N2CCN(C3CCS(=O)(=O)C3)CC2)cc1 (stereo not shown) | 7.43 |
| CCCCOC(=O)c1ccc(NC(=O)COC(=O)c2ccc3ncsc3c2)cc1 | -2.3 |
| Cc1cccc(CCNC(=O)C2CCCN(S(=O)(=O)c3cccc4nsnc34)C2)c1 (stereo not shown) | 1.58 |
| CC(=O)N1N=C(c2cccnc2)CC1c1ccccc1O (stereo not shown) | 7.43 |
| CCOC(=O)c1ccc(NC(=S)N(CCCN2CCCC2)Cc2cccs2)cc1 | -31.6 |
| COc1ccc(OC)c(CNc2nc3ccccc3n2CCN2CCCCC2)c1 | -19.3 |
| COc1cc2ccccc2cc1C(=O)N(CCN(C)C)c1nc2c(F)cccc2s1.Cl | -1.04 |
| O=C(Nc1ccc(OCC(F)(F)C(F)F)cc1)c1ccncc1 | 8.31 |
| COCCCNC(=O)CSc1nc2sc(C(=O)OC)c(C)c2c(=O)n1N | 4.18 |
| O=C(CN1CCN(c2ccc(F)cc2)CC1)c1cccs1 | 7.21 |
| COc1ccc(N=c2cc(-c3ccc(OC)cc3)oc3ccccc23)cc1 | 7.61 |
| CCS(=O)(=O)N1CCC(C(=O)NCc2cc(OC)ccc2OC)CC1 | 4.01 |
| Cc1nc(Oc2ccccc2)c2ccccc2n1 | 6.66 |
| CN(C(=O)COC(=O)/C=C/c1ccc2c(c1)OCO2)c1c(N)n(Cc2ccccc2)c(=O)[nH]c1=O | 4.69 |
| O=C(CSCc1ccccc1Br)NNC(=S)NCc1ccco1 | -4.72 |
| O=C(Nc1ccc(Cl)c(C(F)(F)F)c1)[C@@H]1CC=C[C@@H]2CCN(C3CCCCC3)C(=O)[C@@H]21 | 17.3 |
| O=C(c1cc2c(s1)-c1ccccc1OC2)N1CCC2(CC1)OCCO2 | -11.3 |
| CCOc1ccc(C(=O)Nc2ccncc2)cc1 | 4.89 |
| COc1ccc(-c2c(C(=O)O)c(-c3ccccc3)cn2C)cc1 | 21.8 |
| COCCN1C(=O)N[C@@H](CCc2ccccc2)[C@H](C(C)=O)[C@H]1C | 9.23 |
| NC(=O)CCCn1c(C(=O)c2ccc(Cl)cc2)c2ccc(C(F)(F)F)cc2[n+]1[O-] | -80.1 |
| CC(C)CN(CC(C)C)C(=O)c1cc(S(=O)(=O)N2CCCCC2)c[nH]1 | 16 |
